Data: article PMC9641999, “Cryo-EM samples of gas-phase purified protein assemblies using native electrospray ion-beam deposition” (Faraday discussions, 2022)

Molecular target: the molecule itself
Test: native MS; non-activating native electrospray on a Q Exactive UHMR; 200 mM ammonium acetate pH 6.9; 5 μM ADH, 10 μM β-gal, 8 μM ferritin, 5 μM GroEL (concentrations of the most abundant oligomers)

B1: β-galactosidase (enzyme)
chain: not shown
notes: β-galactosidase (β-gal), Sigma Aldrich G3153-5MG; tetramer with a mass of 466 kDa; source: bought: Sigma Aldrich (G3153-5MG), used without further purification; desalted into 200 mM ammonium acetate
stoichiometry N: 4
